Some test systems named below: CCRF-CEM leukemia; HOP-92 NSCLC; NCI-H226 lung; NCI-H23 lung; SR leukemia; UACC-257 melanoma.
Assay in all cases: NCI-60 cell line screen, 48 h

Drawing on PubChem BioAssay (NCI), this text covers GI50 and TGI for one molecule.

Molecules are shown by their SMILES.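 Cultured in 96-well plates, cells were exposed to test compound for 48 hours across five concentrations. GI50: concentration for 50% inhibition of growth. TGI: total growth inhibition.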 The source made the active and inactive calls.

For `COc1ccccc1Oc1nccc(-c2c(-c3ccc(F)cc3)ncn2C2CCNCC2)n1`, the GI50 in the experiment on CCRF-CEM leukemia and with NCI-H23 lung was above 25 µM each time. Besides, the TGI was above 25 µM in the experiment on CCRF-CEM leukemia; above 25 µM in the experiment on HOP-92 NSCLC; above 25 µM in the experiment on NCI-H226 lung; above 25 µM with NCI-H23 lung; 18.7 µM in the experiment on SR leukemia; above 25 µM in the experiment with UACC-257 melanoma. The GI50 entry in the experiment with HOP-92 NSCLC, in the experiment with NCI-H226 lung, in the experiment on SR leukemia and with UACC-257 melanoma was “inactive” throughout.
